# The supplement of paper PMC8728848
# The other results are listed elsewhere or left out.
# B1: Gal 8 (Mus musculus), Q9JL15 (protein)
# chain: MGGSHHHHHHGMASMLSLNNLQNIIYNPIIPYVGTITEQLKPGSLIVIRGHVPKDSERFQVDFQLGNSLKPRADVAFHFNPHFKRSSCIVCNTLTQEKWGWEEITYDMPFRKEKSFEIVFMVLKNKFQVAVNGRHVLLYAHRISPEQIDTVGIYGKVNIHSIGFRFSSASALPHTLGDLQSMETSALGLTQINRENIQKPGKLQLSLPFEARLNASMGPGRTVVIKGEVNTNARSFNVDLVAGKTRDIALHLNPHLNVKAFVRNSFLQDAWGEEERNITCFPFSSGMYFEMIIYCDVREFKVAINGVHSLEYKHRFKDLSSIDTLSVDGDIRLLDVRSW
# Key:
# Test in all cases: glycan array binding signal (z-score within array); higher = stronger binding
# Details in all cases: glycan notation: IUPAC condensed, linker removed; mutation: R82H, R255H
# [1] = biological target: Fuc(a1-3)[Gal3S(b1-4)]GlcNAc
# How it was run: (§1)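 Columns mapping to the same glycan were averaged after glycan names were converted to IUPAC-condensed notation. The data come from 3228 arrays in the Consortium for Functional Glycomics database, limited to those with an available protein sequence. Binding is reported as a within-array Z-score averaged across arrays of one protein sequence and across linkers.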
# [2] = biological target: Fuc(a1-3)[Gal3S(b1-4)]GlcNAc6S
# How it was run: as §1
# [3] = biological target: Fuc(a1-3)[GalNAc(b1-4)]GlcNAc
# How it was run: as §1
# [4] = biological target: Fuc(a1-3)[GalNAc(b1-4)]GlcNAc6S
# How it was run: as §1
# Fuc(a1-4)GlcNAc = biological target: Fuc(a1-4)GlcNAc
# How it was run: as §1
# Fuc(b1-3)GlcNAc = biological target: Fuc(b1-3)GlcNAc
# How it was run: as §1
# Gal(a1-2)Gal = biological target: Gal(a1-2)Gal
# How it was run: as §1
# Gal(a1-3)Gal = biological target: Gal(a1-3)Gal
# How it was run: as §1
# Gal(a1-3)Gal(b1-3)GlcNAc = biological target: Gal(a1-3)Gal(b1-3)GlcNAc
# How it was run: as §1
# [5] = biological target: Gal(a1-3)Gal(b1-3)GlcNAc(b1-2)Man
# How it was run: as §1
# [6] = biological target: Gal(a1-3)Gal(b1-3)GlcNAc(b1-2)Man(a1-3)[Gal(a1-3)Gal(b1-3)GlcNAc(b1-2)Man(a1-6)]Man(b1-4)GlcNAc(b1-4)GlcNAc
# How it was run: as §1
# [7] = biological target: Gal(a1-3)Gal(b1-3)GlcNAc(b1-3)GalNAc
# How it was run: as §1
# [8] = biological target: Gal(a1-3)Gal(b1-3)GlcNAc(b1-6)GalNAc
# How it was run: as §1
# [9] = biological target: Gal(a1-3)Gal(b1-3)[Fuc(a1-4)]GlcNAc(b1-2)Man(a1-3)[Gal(a1-3)Gal(b1-3)[Fuc(a1-4)]GlcNAc(b1-2)Man(a1-6)]Man(b1-4)GlcNAc(b1-4)GlcNAc
# How it was run: as §1
# Gal(a1-3)Gal(b1-4)Glc = biological target: Gal(a1-3)Gal(b1-4)Glc
# How it was run: as §1
# Gal(a1-3)Gal(b1-4)GlcNAc = biological target: Gal(a1-3)Gal(b1-4)GlcNAc
# How it was run: as §1
# [10] = biological target: Gal(a1-3)Gal(b1-4)GlcNAc(b1-2)Man
# How it was run: as §1
# [11] = biological target: Gal(a1-3)Gal(b1-4)GlcNAc(b1-2)Man(a1-3)[Gal(a1-3)Gal(b1-4)GlcNAc(b1-2)Man(a1-6)]Man(b1-4)GlcNAc(b1-4)GlcNAc
# How it was run: as §1
# [12] = biological target: Gal(a1-3)Gal(b1-4)GlcNAc(b1-3)GalNAc
# How it was run: as §1
# [13] = biological target: Gal(a1-3)Gal(b1-4)GlcNAc(b1-6)GalNAc
# How it was run: as §1
# [14] = biological target: Gal(a1-3)Gal(b1-4)[Fuc(a1-3)]GlcNAc
# How it was run: as §1
# [15] = biological target: Gal(a1-3)Gal(b1-4)[Fuc(a1-3)]GlcNAc(b1-2)Man(a1-3)[Gal(a1-3)Gal(b1-4)[Fuc(a1-3)]GlcNAc(b1-2)Man(a1-6)]Man(b1-4)GlcNAc(b1-4)GlcNAc
# How it was run: as §1
# Gal(a1-3)GalNAc = biological target: Gal(a1-3)GalNAc
# How it was run: as §1
# [16] = biological target: Gal(a1-3)[Gal(a1-4)]Gal(b1-4)GlcNAc
# How it was run: as §1
# [17] = biological target: Gal(a1-4)Gal(b1-3)GlcNAc(b1-2)Man(a1-3)[Gal(a1-4)Gal(b1-3)GlcNAc(b1-2)Man(a1-6)]Man(b1-4)GlcNAc(b1-4)GlcNAc
# How it was run: as §1
# Gal(a1-4)Gal(b1-4)Glc = biological target: Gal(a1-4)Gal(b1-4)Glc
# How it was run: as §1
# Gal(a1-4)Gal(b1-4)GlcNAc = biological target: Gal(a1-4)Gal(b1-4)GlcNAc
# How it was run: as §1
# [18] = biological target: Gal(a1-4)Gal(b1-4)GlcNAc(b1-2)Man(a1-3)[Gal(a1-4)Gal(b1-4)GlcNAc(b1-2)Man(a1-6)]Man(b1-4)GlcNAc(b1-4)GlcNAc
# How it was run: as §1
# [19] = biological target: Gal(a1-4)Gal(b1-4)GlcNAc(b1-3)Gal(b1-4)Glc
# How it was run: as §1
# Gal(a1-4)GlcNAc = biological target: Gal(a1-4)GlcNAc
# How it was run: as §1
# Gal(a1-6)Glc = biological target: Gal(a1-6)Glc
# How it was run: as §1
# Gal(b1-2)Gal = biological target: Gal(b1-2)Gal
# How it was run: as §1
# Gal(b1-3)Gal = biological target: Gal(b1-3)Gal
# How it was run: as §1
# Gal(b1-3)Gal(b1-4)GlcNAc = biological target: Gal(b1-3)Gal(b1-4)GlcNAc
# How it was run: as §1
# Gal(b1-3)GalNAc = biological target: Gal(b1-3)GalNAc
# How it was run: as §1
# [20] = biological target: Gal(b1-3)GalNAc(a1-3)[Fuc(a1-2)]Gal(b1-4)Glc
# How it was run: as §1
# [21] = biological target: Gal(b1-3)GalNAc(a1-3)[Fuc(a1-2)]Gal(b1-4)GlcNAc
# How it was run: as §1
binder,measurement,setting,value
B1,glycan array binding signal (z-score),[1],-0.224
same,glycan array binding signal (z-score),[2],-0.222
same,glycan array binding signal (z-score),[3],-0.253
same,glycan array binding signal (z-score),[4],-0.25
same,glycan array binding signal (z-score),Fuc(a1-4)GlcNAc,0.01
same,glycan array binding signal (z-score),Fuc(b1-3)GlcNAc,-0.067
same,glycan array binding signal (z-score),Gal(a1-2)Gal,-0.153
same,glycan array binding signal (z-score),Gal(a1-3)Gal,-0.211
same,glycan array binding signal (z-score),Gal(a1-3)Gal(b1-3)GlcNAc,-0.019
same,glycan array binding signal (z-score),[5],-0.263
same,glycan array binding signal (z-score),[6],-0.239
same,glycan array binding signal (z-score),[7],-0.292
same,glycan array binding signal (z-score),[8],-0.262
same,glycan array binding signal (z-score),[9],-0.18
same,glycan array binding signal (z-score),Gal(a1-3)Gal(b1-4)Glc,-0.236
same,glycan array binding signal (z-score),Gal(a1-3)Gal(b1-4)GlcNAc,-0.274
same,glycan array binding signal (z-score),[10],-0.172
same,glycan array binding signal (z-score),[11],-0.037
same,glycan array binding signal (z-score),[12],-0.196
same,glycan array binding signal (z-score),[13],-0.243
same,glycan array binding signal (z-score),[14],-0.27
same,glycan array binding signal (z-score),[15],0.181
same,glycan array binding signal (z-score),Gal(a1-3)GalNAc,-0.229
same,glycan array binding signal (z-score),[16],-0.236
same,glycan array binding signal (z-score),[17],-0.11
same,glycan array binding signal (z-score),Gal(a1-4)Gal(b1-4)Glc,-0.18
same,glycan array binding signal (z-score),Gal(a1-4)Gal(b1-4)GlcNAc,-0.256
same,glycan array binding signal (z-score),[18],-0.229
same,glycan array binding signal (z-score),[19],-0.123
same,glycan array binding signal (z-score),Gal(a1-4)GlcNAc,-0.228
same,glycan array binding signal (z-score),Gal(a1-6)Glc,-0.238
same,glycan array binding signal (z-score),Gal(b1-2)Gal,-0.193
same,glycan array binding signal (z-score),Gal(b1-3)Gal,-0.21
same,glycan array binding signal (z-score),Gal(b1-3)Gal(b1-4)GlcNAc,-0.243
same,glycan array binding signal (z-score),Gal(b1-3)GalNAc,-0.251
same,glycan array binding signal (z-score),[20],-0.239
same,glycan array binding signal (z-score),[21],-0.16
